Results taken from the supplement of paper PMC11125491.
± gives the standard deviation of the averaged measurements. Growth of baker's yeast expressing single-residue variants of Pneumocystis jirovecii dihydrofolate reductase in 8.8 or 44 µM methotrexate (about 75% and 90% inhibition of the wild type). Selection coefficient per generation; 0 = like wild type, above 0 = less sensitive, below 0 = more sensitive or loss of function. No active / inactive call per row; the paper calls resistant above 0.220 (8.8 µM) or 0.243 (44 µM) together with a significance test. At 44 µM about 15% of codons end with one read or none, so the lowest values are floors (replicate rank correlation 0.74; 0.94 at 8.8 µM).

B1: UniProt A0EPZ9; numbered along this chain (parent)
chain: MDWQKSLTLIVALTLSRGIGLKNDLPWKLKSDMMFFSRVTSGLLVTRSTGQMNVVLMGRKTWESLPAHSRPLKNRINVVISRQEVLDLGGGAYHARSLDDALALLSQIYDSTSKIQLNRVFVIGGGELCKAAMEHSRLNRIIATVIHNEVDCDVFFPIDFRSSQSCLPWRKQDHSVLEAWVGSKVPQGKINENGFIYEFEMWIRDI

Variants of: B1
Assay: selection coefficient against synonymous wild-type codons (log2 per generation); higher = faster growth than wild type
Conditions: with Saccharomyces cerevisiae carrying the variant on a plasmid
Experimental: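 Pooled growth of yeast carrying single-residue variants of P. jirovecii dihydrofolate reductase (own DFR1 gene intact), two passages at 30 °C, three cultures, sequenced before and after. Codons with under 15 starting reads are left out; codons of one change are averaged.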

| Variant | selection coefficient against synonymous wild-type codons (log2) (methotrexate 8.8 µM) | selection coefficient against synonymous wild-type codons (log2) (methotrexate 44 µM) |
| --- | --- | --- |
| MDWQKSLTLIVALTLSRGIGLKNDLPWKLKSDMMFFSRVTSGLLVTRSTGQMNPVLMGRKTWESLPAHSRPLKNRINVVISRQEVLDLGGGAYHARSLDDALALLSQIYDSTSKIQLNRVFVIGGGELCKAAMEHSRLNRIIATVIHNEVDCDVFFPIDFRSSQSCLPWRKQDHSVLEAWVGSKVPQGKINENGFIYEFEMWIRDI [V54P] | -0.226 ± 0.062 | -0.245 ± 0.13 |
| MDWQKSLTLIVALTLSRGIGLKNDLPWKLKSDMMFFSRVTSGLLVTRSTGQMNMVLMGRKTWESLPAHSRPLKNRINVVISRQEVLDLGGGAYHARSLDDALALLSQIYDSTSKIQLNRVFVIGGGELCKAAMEHSRLNRIIATVIHNEVDCDVFFPIDFRSSQSCLPWRKQDHSVLEAWVGSKVPQGKINENGFIYEFEMWIRDI [V54M] | -0.517 ± 0.1 | -0.337 ± 0.11 |
| MDWQKSLTLIVALTLSRGIGLKNDLPWKLKSDMMFFSRVTSGLLVTRSTGQMNRVLMGRKTWESLPAHSRPLKNRINVVISRQEVLDLGGGAYHARSLDDALALLSQIYDSTSKIQLNRVFVIGGGELCKAAMEHSRLNRIIATVIHNEVDCDVFFPIDFRSSQSCLPWRKQDHSVLEAWVGSKVPQGKINENGFIYEFEMWIRDI [V54R] | -0.481 ± 0.053 | -0.233 ± 0.069 |
| MDWQKSLTLIVALTLSRGIGLKNDLPWKLKSDMMFFSRVTSGLLVTRSTGQMNQVLMGRKTWESLPAHSRPLKNRINVVISRQEVLDLGGGAYHARSLDDALALLSQIYDSTSKIQLNRVFVIGGGELCKAAMEHSRLNRIIATVIHNEVDCDVFFPIDFRSSQSCLPWRKQDHSVLEAWVGSKVPQGKINENGFIYEFEMWIRDI [V54Q] | -0.511 ± 0.12 | -0.305 ± 0.073 |
| MDWQKSLTLIVALTLSRGIGLKNDLPWKLKSDMMFFSRVTSGLLVTRSTGQMNTVLMGRKTWESLPAHSRPLKNRINVVISRQEVLDLGGGAYHARSLDDALALLSQIYDSTSKIQLNRVFVIGGGELCKAAMEHSRLNRIIATVIHNEVDCDVFFPIDFRSSQSCLPWRKQDHSVLEAWVGSKVPQGKINENGFIYEFEMWIRDI [V54T] | -0.405 ± 0.18 | -0.269 ± 0.051 |
| MDWQKSLTLIVALTLSRGIGLKNDLPWKLKSDMMFFSRVTSGLLVTRSTGQMNLVLMGRKTWESLPAHSRPLKNRINVVISRQEVLDLGGGAYHARSLDDALALLSQIYDSTSKIQLNRVFVIGGGELCKAAMEHSRLNRIIATVIHNEVDCDVFFPIDFRSSQSCLPWRKQDHSVLEAWVGSKVPQGKINENGFIYEFEMWIRDI [V54L] | -0.56 ± 0.13 | -0.339 ± 0.13 |
| MDWQKSLTLIVALTLSRGIGLKNDLPWKLKSDMMFFSRVTSGLLVTRSTGQMNNVLMGRKTWESLPAHSRPLKNRINVVISRQEVLDLGGGAYHARSLDDALALLSQIYDSTSKIQLNRVFVIGGGELCKAAMEHSRLNRIIATVIHNEVDCDVFFPIDFRSSQSCLPWRKQDHSVLEAWVGSKVPQGKINENGFIYEFEMWIRDI [V54N] | -0.534 ± 0.04 | -0.244 ± 0.046 |
| MDWQKSLTLIVALTLSRGIGLKNDLPWKLKSDMMFFSRVTSGLLVTRSTGQMNSVLMGRKTWESLPAHSRPLKNRINVVISRQEVLDLGGGAYHARSLDDALALLSQIYDSTSKIQLNRVFVIGGGELCKAAMEHSRLNRIIATVIHNEVDCDVFFPIDFRSSQSCLPWRKQDHSVLEAWVGSKVPQGKINENGFIYEFEMWIRDI [V54S] | -0.411 ± 0.14 | -0.278 ± 0.11 |
